# According to PMC10726135:
# The list shows a part of the results. At the low end of the ranking the order means little. The protein was read in a cell extract, so binding may be indirect.
# Biological target: T1, HNF4alpha8 (COS-7 nuclear extract) (UniProt P41235-5)
# T1 sequence: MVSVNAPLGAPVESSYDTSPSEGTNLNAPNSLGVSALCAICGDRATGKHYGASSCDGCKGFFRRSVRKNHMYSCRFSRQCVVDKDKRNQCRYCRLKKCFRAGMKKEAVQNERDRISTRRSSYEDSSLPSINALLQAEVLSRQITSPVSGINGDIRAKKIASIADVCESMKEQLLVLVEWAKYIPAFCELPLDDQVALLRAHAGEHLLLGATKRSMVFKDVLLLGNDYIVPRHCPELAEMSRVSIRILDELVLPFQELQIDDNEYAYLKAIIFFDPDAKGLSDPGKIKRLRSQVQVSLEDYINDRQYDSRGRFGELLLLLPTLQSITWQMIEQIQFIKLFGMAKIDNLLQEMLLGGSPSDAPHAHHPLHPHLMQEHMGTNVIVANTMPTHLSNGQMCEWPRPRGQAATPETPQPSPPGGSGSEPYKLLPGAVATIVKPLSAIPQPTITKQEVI
# Experiment: protein-binding microarray
# Settings: COS-7 nuclear extract on double-stranded Agilent 4x180k PBM; binding buffer, salt, pH and temperature not given; high values mean tight binding; double strand, one strand shown; sequences stand for … in …GCCTAGGGAGATTAGAGTATCGGTCGA
row,Sequence,binding signal (log2 normalized intensity)
1,CAGTGCTGCCATTTGAGGAGTGTTGAGATT,0.359
2,TCACAGTGCCTCTGCAAGTTGGCCTTACTA,-0.0691
3,CCCCCAGTGGAATGTGCCCTTTGACCTCTC,10.3
4,ACGGTGTCCCTGGCCAATCCCAGGGTCAGA,2.07
5,GGACTTTGCTCTGCTCATTTTTCCCCTGAC,5.14
6,GCTAGAGGCCCTGCATTAAACAAGAGAGAG,-1.32
7,CACCTTTTTTGGCCTTTACCCCTTGAGTTT,4.54
8,AAAAGGGACAAAGGTGAGTGCAACCTTCTC,2.49
9,TAAATGCAGTTTGTCAAGTGCCCGGATAAA,1.23
10,TGGTATGTTTGGATTGGGCAATGACCTGGA,2.7
11,CATTCACATGACCTTTGTCCGTTCCTGCCT,6.63
12,GCAGGGAGAGTTGCACCCAGGCCGTTGGAC,0.534
13,AATCCCATGCTGATGGCAAACACCTGGCCA,-1.36
14,GCTGTCTACTCTGGGGGTCAGCAATGGTAA,2.36
15,CTGGTGCCTCCTTATCTCCCCAACTGTAAA,3.35
16,CACAAAAGCTGCTGCCAAGCGTCAGTCATA,-1.35
17,ATCTGAAGGAAATGGACAACGGAAAGACAG,-1.27
18,CTTGCATTTCTTCAGATGCAACACAGGGGG,-1.39
19,ACGCTTGACTGGCTCCACCACTTTGCCTAT,-1.34
20,GGACAGGCCAAATCCAGTAAGGCACGGAGT,-1.26

row,Sequence,binding signal (log2 normalized intensity)
1,GGGCCAGGAGCAGGAGCAGAAGCAGGCCTC,-1.23
2,GAGTTTAGGCATTCTTAGACACAGTCTGAG,-1.42
3,CCTGAGGTGTGAGAGGGCAAAGGTCACAGC,8.73
4,GTTCAACCCTGAATGTGTGCTGGCCTGGTT,1.65
5,TGGCTCCAAGGCTGAAGGTCTCGAGGCCTC,-1.42
6,AGCCTTTTGTCCCAAGGAGAATTTCACAAA,0.341
7,AGAGGTCGCGAGAGAACTGAAAAAGGGGAC,-1.32
8,AGGTGCAGAGAGGGGCAGGGTTCACATAGC,2.08
9,AAACTCCAAAGTCCATGCTATTAAGCACTA,4.07
10,TGAAGTCCAACCCTCCGTTTCTCTGGGCCT,-1.23
11,CAGAAAGCAAGAGCACAAGAACAAAAACTG,-1.25
12,CATAAAGGGTTGAAGAAAGATCACACAAAT,-1.32
13,CAGAGGGCTGCTTGCAGGAGGCCGGGCGCG,-1.4
14,ACATGTGCAAGGGCAGCTCCGTTTACCTAG,-1.1
15,ATGAGCAAACAGAACTGTTAACTTTGTACT,2.72
16,CATTTATAGATAAGCACACTAAGGCTAAAG,-1.41
17,TTTTTCTTTTTTTCCCCCTCACTGAATATG,4.38
18,TGGGACTGATAACTTAGGCCCATATTCCTT,-1.31
19,TGGCTAAGACAGGGGCTATTTCTGACCTTT,7.32
20,CCACCCTATTGATGCAAGGACAATGTCTAG,1.38
